Measurements taken from PubChem BioAssay AID504706 (National Center for Advancing Translational Sciences (NCATS), 2011).
About 200 (0.062%) of roughly 320,000 compounds were called active. The shares of active, inactive and inconclusive entries below differ from those in the screen. Calls follow the shape of the dose curve; as a rule, active = well fitted activation curve with a large enough effect; inconclusive = small, poorly fitted or top-dose-only effect; inactive = no such curve, though single readings can be large or run the other way. Potencies of inconclusive entries are left out as doubtful fits.
Potency is read from the fitted curve at half-maximal effect; tags tell the direction and shape of the fitted curve.

Test: qHTS assay for re-activators of p53 using a Luc reporter; also: nearly all actives have a fitted effect of over 45% in size
Conditions: H1299 p53-A138V BP100-luciferase reporter, luminescence, 24 h; series mostly up to 92.2 µM
How it was run: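 p53-null H1299 cells stably carrying temperature-sensitive p53-A138V and a BP100-luciferase reporter were pinned with compounds (4-point, 1:5 series) and held 24 hrs at 37 deg C. Luminescence was read 10 min after detection reagent.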
For `COCc1cc(C)[nH]c(=O)c1C#N`, the Potency was inconclusive [activator, single point]. For `CNc1sc(C(=O)c2ccccc2F)c(N)c1-c1nc2ccccc2s1`, the Potency was inconclusive [activator, single point]. In the case of `O=C(c1cccs1)n1nc(-c2ccccc2)nc1NCc1ccco1`, the Potency is reported as inconclusive [activator, partial curve, poor fit]. With `O=C(NCC1CCCO1)c1cc(-c2ccccc2)nc2ccccc12` (stereo not drawn) the Potency was inconclusive [activator, single point]. In the case of `CN(C)c1cccc(/C=C(\C#N)c2ccccc2)c1`, the Potency is reported as inconclusive [activator, full curve, poor fit]. With `O=C(CC(Nc1ccc(F)cc1)c1ccccc1)c1ccccc1` (stereo not drawn) the Potency was inconclusive [activator, partial curve, poor fit]. In the case of `Cc1ccc(Nc2nc(N)nc(CSC(=S)N3CCOCC3)n2)c(C)c1`, the Potency is reported as inconclusive [activator, partial curve, poor fit]. In the case of `Cc1ccc2nc(N(CCN(C)C)C(=O)c3ccc4ccccc4c3)sc2c1`, the Potency is reported as inconclusive [activator, partial curve, poor fit]. In the case of `Cc1onc(-c2ccccc2)c1C(=O)Nc1c(C)n(C)n(-c2ccccc2)c1=O`, the Potency is reported as inconclusive [activator, single point]. With `Cc1ccccc1Cn1nnc(-c2cccc(C(=O)O)c2)n1` the Potency was inconclusive [activator, partial curve, poor fit]. In the case of `O=C(COc1ccccc1)Nc1ccccc1Oc1ccccc1`, the Potency is reported as inconclusive [activator, single point]. For `COc1cc(/C=N/NC(=O)Nc2ccccc2)ccc1OC(C)=O`, the Potency was inconclusive [activator, partial curve, poor fit]. With `O=C(Nc1ccc(F)cc1)N1CCN2C(=O)c3ccccc3C12c1ccccc1` (stereo not drawn) the Potency was “inactive”. For `COC(=O)c1cc2nc(-c3ccc(OC)c(OC)c3)cc(C(F)(F)F)n2n1`, the Potency was “inactive”. With `Cc1cc(C)n(CC(=O)NC2CCCc3c2cnn3-c2ccc(C)c(C)c2)n1` (stereo not drawn) the Potency was inconclusive [activator, partial curve, poor fit]. For `CCCCNC(=O)c1ccc(SCC(=O)N(CC)CC)c([N+](=O)[O-])c1`, the Potency was inconclusive [activator, single point]. With `CCOC(=O)N1CCN(C(=O)c2ccc(C#CC3(O)CCCCC3)cc2)CC1` the Potency was inconclusive [activator, partial curve, poor fit]. In the case of `O=C(CN(C(=O)CCC(=O)Nc1nccs1)c1ccc(F)cc1)NCC1CCCO1` (stereo not drawn), the Potency is reported as inconclusive [activator, partial curve, poor fit]. With `O=C(Nc1ccc(F)cc1)N(Cc1ccco1)Cc1cc2cc3c(cc2[nH]c1=O)OCO3` the Potency was “inactive”. With `O=C(NCC(c1ccco1)N1CCc2ccccc21)C(=O)Nc1ccccc1` (stereo not drawn) the Potency was “inactive”. For `COc1cccc(C(=O)Nc2ccc(NC(=O)c3ccco3)nc2)c1`, the Potency was inconclusive [activator, partial curve, poor fit]. With `O=C(OCC(=O)N1CCOCC1)c1cc(F)c(F)cc1Cl` the Potency was inconclusive [activator, partial curve, poor fit]. In the case of `COc1ccc(-n2c(C)cc(C(=O)CSc3ccc(NC(C)=O)cc3)c2C)cc1`, the Potency is reported as inconclusive [activator, partial curve, poor fit]. For `Cn1cccc1/C=C1\SC(=O)N(c2ccccc2)C1=O`, the Potency was inconclusive [activator, full curve, poor fit]. For `Fc1ccc(Nc2ccnc(Nc3ccc(F)cc3)n2)cc1`, the Potency was inconclusive [activator, partial curve, poor fit]. For `CCCCCCCCCC(=O)N/N=C(\C)c1cccnc1`, the Potency was “inactive”. For `O=C(NC(=S)Nc1nc2ccccc2s1)c1cccs1`, the Potency was inconclusive [activator, full curve, poor fit]. With `O=C(N/N=C/C(Cl)=C/c1ccccc1)c1ccco1` the Potency was inconclusive [activator, partial curve, poor fit]. In the case of `COc1cccc(/C=N/c2sc(Cc3ccccc3)c(C)c2C(N)=O)c1O`, the Potency is reported as inconclusive [activator, partial curve, poor fit]. With `S=C(NCC1CCCO1)Nc1ccc(Cl)cc1Cl` (stereo not drawn) the Potency was inconclusive [activator, partial curve, poor fit]. In the case of `COc1ccc(-n2nc(C(=O)NCC(=O)N3CCCCCC3)c3ccccc3c2=O)c(OC)c1`, the Potency is reported as inconclusive [activator, partial curve, poor fit]. For `O=C(NNC(=S)Nc1ccccc1Cl)c1ccccc1Br`, the Potency was inconclusive [activator, partial curve, poor fit]. For `O=c1c(Br)c(N2CCOCC2)cnn1-c1ccccc1`, the Potency was “inactive”. With `O=C(Nc1nc2ccccc2s1)C1CCCO1` (stereo not drawn) the Potency was inconclusive [activator, partial curve, poor fit]. With `Cc1cccc2sc(N(CCCN(C)C)C(=O)c3cc4ccccc4oc3=O)nc12` the Potency was inconclusive [activator, partial curve, poor fit]. In the case of `COc1ccc(C(=O)N/C(=C\c2cccc3ccccc23)C(=O)N2CCN(C)CC2)cc1`, the Potency is reported as inconclusive [activator, single point]. For `CCOC(=O)N/N=C/c1ccc(N2CCOCC2)s1`, the Potency was inconclusive [activator, partial curve, poor fit]. In the case of `C=CCn1c(C)cc(C(=O)CSc2nnc(C3CC3)n2C2CC2)c1C`, the Potency is reported as inconclusive [activator, full curve, poor fit]. With `O=C(O)c1ccc(/C=N/NC(=O)c2cc(-c3cccs3)nc3ccccc23)cc1` the Potency was “inactive”. In the case of `COc1ccccc1N1CCN(C2CC(=O)N(c3ccccc3)C2=O)CC1` (stereo not drawn), the Potency is reported as inconclusive [activator, single point]. With `CC(C)NC(=O)CCCc1ccccc1` the Potency was inconclusive [activator, partial curve, poor fit]. For `OC(CNCC1(N2CCCCC2)CCCCC1)COc1ccc(Cl)cc1Cl` (stereo not drawn), the Potency was “inactive”. For `O=C(Nc1ccc(C(=O)c2ccccc2)cc1)c1ccccc1`, the Potency was inconclusive [activator, partial curve, poor fit]. With `O=C(NCc1ccccn1)Nc1cccc(Cl)c1` the Potency was inconclusive [activator, partial curve, poor fit]. With `COc1ccc(C(=O)NCCC2=CCCCC2)cc1[N+](=O)[O-]` the Potency was “inactive”. For `COc1ccc(N=C(N)SCc2ccccn2)cc1`, the Potency was active: 35.5 µM. For `Cc1ccc2nc(Cl)c(/C=C/C(=O)c3ccco3)cc2c1`, the Potency was inconclusive [activator, single point]. For `Cc1ccc2nc(NC(=O)CCCC(=O)O)sc2c1`, the Potency was “inactive”. For `CC(C)(C)c1csc(NC(=O)c2cccs2)n1`, the Potency was inconclusive [activator, partial curve, poor fit]. For `Cc1cc2n(n1)C(c1sccc1C)Nc1ccccc1-2` (stereo not drawn), the Potency was “inactive”. In the case of `COc1ccc(/C(N)=N/OC(=O)c2cccc([N+](=O)[O-])c2)cc1`, the Potency is reported as inconclusive [activator, partial curve, poor fit]. For `Cc1ccc(NC(=O)Nc2ccc(Cl)cc2)c(Br)c1`, the Potency was inconclusive [activator, full curve, poor fit]. With `NNC(=O)c1cccn(Cc2ccc(Cl)cc2Cl)c1=O` the Potency was “inactive”. For `CCCCCN1CSC(=S)N(Cc2ccccc2)C1`, the Potency was “inactive”. For `CCOC(=O)C(C(=O)Nc1ccccc1)C1CCCCC1` (stereo not drawn), the Potency was inconclusive [activator, single point]. With `O=c1c2c(-c3ccccc3)csc2nc2c3ccccc3c(NCCN3CCOCC3)nn12` the Potency was “inactive”. With `O=C(COc1ccc(Br)cc1Cl)NC(=O)NC1CCCC1` the Potency was inconclusive [activator, partial curve, poor fit]. For `O=C(Nc1ccc(N2CCOCC2)cc1)Nc1cnsn1`, the Potency was “inactive”. With `COc1ccc(O)c(C(=O)CC(=O)c2ccccc2)c1` the Potency was inconclusive [activator, partial curve, poor fit]. With `Cc1cc(Cl)ccc1OCC(=O)Nc1cccnc1` the Potency was inconclusive [activator, full curve, poor fit]. With `O=C(c1cc(-c2ccc(Cl)cc2)on1)N1CCCC1` the Potency was inconclusive [activator, full curve, poor fit]. With `CC(C)NC(=O)N1CC(c2ccccc2)C(c2ccc(Cl)cc2)=N1` (stereo not drawn) the Potency was “inactive”. In the case of `O=C(CSc1ccc(-c2ccccn2)nn1)N1CCCCC1`, the Potency is reported as inconclusive [activator, single point]. In the case of `Cc1cc(C(=O)COC(=O)c2ccc(Cl)c(S(N)(=O)=O)c2)c(C)n1CC1CCCO1` (stereo not drawn), the Potency is reported as “inactive”. With `O=C(Nc1nnc(SCC(=O)N2CCCc3ccccc32)s1)c1ccc2ccccc2c1` the Potency was inconclusive [activator, full curve, poor fit]. For `Fc1cccc2sc(Nc3nnc(-c4ccco4)o3)nc12`, the Potency was inconclusive [activator, partial curve, poor fit]. In the case of `COc1ccc(/C=C2/CCOC2=O)cc1`, the Potency is reported as “inactive”. With `Cc1ccccc1CN1CCN(C(C)C(=O)NNC(=O)c2ccc(F)cc2)CC1` (stereo not drawn) the Potency was inconclusive [activator, full curve, poor fit].
